# Laboratory results taken from the supplement of paper PMC8728848.
# This is one part of the list.
# What was measured:
# Test in all cases: glycan array binding signal (z-score within array); higher = stronger binding
# Details in all cases: glycan notation: IUPAC condensed, linker removed
# [1] = biological target: Gal(b1-4)GlcNAc(b1-3)Gal(b1-4)GlcNAc(b1-3)[Gal(b1-4)GlcNAc(b1-3)Gal(b1-4)GlcNAc(b1-6)]GalNAc
# How it was run: (§1)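 Negative Z-scores can be read as non-binding. The Z-score is calculated within each array and then averaged across arrays of one protein sequence at different concentrations or buffers and across linkers. Arrays, 3228 in all, were curated from the Consortium for Functional Glycomics database and kept only where the protein sequence was available.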
# [2] = biological target: Gal(b1-4)GlcNAc(b1-3)Gal(b1-4)GlcNAc(b1-6)[Gal(b1-3)]GalNAc
# How it was run: as §1
# [3] = biological target: Gal(b1-4)GlcNAc(b1-3)Gal(b1-4)[Fuc(a1-3)]GlcNAc(b1-3)Gal(b1-4)[Fuc(a1-3)]GlcNAc
# How it was run: as §1
# [4] = biological target: Gal(b1-4)GlcNAc(b1-3)GalNAc
# How it was run: as §1
# [5] = biological target: Gal(b1-4)GlcNAc(b1-3)[Fuc(a1-3)GlcNAc(b1-6)]Gal(b1-4)Glc
# How it was run: as §1
# [6] = biological target: Gal(b1-4)GlcNAc(b1-3)[Gal(b1-4)GlcNAc(b1-6)]Gal(b1-4)GlcNAc
# How it was run: as §1
# [7] = biological target: Gal(b1-4)GlcNAc(b1-3)[GlcNAc(b1-6)]Gal(b1-4)GlcNAc
# How it was run: as §1
# [8] = biological target: Gal(b1-4)GlcNAc(b1-6)Gal(b1-4)GlcNAc
# How it was run: as §1
# [9] = biological target: Gal(b1-4)GlcNAc(b1-6)GalNAc
# How it was run: as §1
# [10] = biological target: Gal(b1-4)GlcNAc(b1-6)[Gal(b1-3)]GalNAc
# How it was run: as §1
# [11] = biological target: Gal(b1-4)GlcNAc(b1-6)[Gal(b1-4)GlcNAc(b1-3)]GalNAc
# How it was run: as §1
# [12] = biological target: Gal(b1-4)GlcNAc6P
# How it was run: as §1
# [13] = biological target: Gal(b1-6)Gal
# How it was run: as §1
# [14] = biological target: Gal3S(b1-3)GalNAc
# How it was run: as §1
# [15] = biological target: Gal3S(b1-3)GlcNAc
# How it was run: as §1
# [16] = biological target: Gal3S(b1-3)[Fuc(a1-4)]GlcNAc
# How it was run: as §1
# [17] = biological target: Gal3S(b1-4)Glc
# How it was run: as §1
# [18] = biological target: Gal3S(b1-4)Glc6S
# How it was run: as §1
# [19] = biological target: Gal3S(b1-4)GlcNAc
# How it was run: as §1
# [20] = biological target: Gal3S(b1-4)[Fuc(a1-3)]Glc6S
# How it was run: as §1
# [21] = biological target: Gal3S(b1-4)[Fuc(a1-3)]GlcNAc
# How it was run: as §1
# [22] = biological target: Gal3S(b1-4)[Fuc(a1-3)]GlcNAc6S
# How it was run: as §1
# [23] = biological target: Gal3S4S(b1-4)GlcNAc
# How it was run: as §1
# [24] = biological target: Gal3S6S(b1-4)GlcNAc
# How it was run: as §1
# [25] = biological target: Gal3S6S(b1-4)GlcNAc6S
# How it was run: as §1
# [26] = biological target: Gal4S(b1-4)GlcNAc
# How it was run: as §1
# [27] = biological target: Gal4S6S(b1-4)GlcNAc
# How it was run: as §1
# [28] = biological target: Gal6P(b1-4)GlcNAc
# How it was run: as §1
# [29] = biological target: Gal6S(b1-3)GlcNAc
# How it was run: as §1
# [30] = biological target: Gal6S(b1-3)GlcNAc6S
# How it was run: as §1
# [31] = biological target: Gal6S(b1-4)Glc
# How it was run: as §1
# [32] = biological target: Gal6S(b1-4)Glc6S
# How it was run: as §1
# [33] = biological target: Gal6S(b1-4)GlcNAc
# How it was run: as §1
# [34] = biological target: Gal6S(b1-4)GlcNAc6S
# How it was run: as §1
# [35] = biological target: GalNAc(a1-3)Gal
# How it was run: as §1
# [36] = biological target: GalNAc(a1-3)GalNAc
# How it was run: as §1
# [37] = biological target: GalNAc(a1-3)GalNAc(b1-3)Gal(a1-4)Gal(b1-4)Glc
# How it was run: as §1
# [38] = biological target: GalNAc(a1-3)GalNAc(b1-3)Gal(a1-4)Gal(b1-4)GlcNAc
# How it was run: as §1
# [39] = biological target: GalNAc(b1-3)Gal
# How it was run: as §1
# [40] = biological target: GalNAc(b1-3)Gal(a1-4)Gal(b1-4)GlcNAc
# How it was run: as §1
# [41] = biological target: GalNAc(b1-3)Gal(a1-4)Gal(b1-4)GlcNAc(b1-3)Gal(b1-4)Glc
# How it was run: as §1
# [42] = biological target: GalNAc(b1-3)Gal(a1-6)Gal(b1-4)Glc
# How it was run: as §1
# [43] = biological target: GalNAc(b1-3)GalNAc
# How it was run: as §1
# [44] = biological target: GalNAc(b1-3)GlcNAc
# How it was run: as §1
# [45] = biological target: GalNAc(b1-4)Gal(b1-4)Glc
# How it was run: as §1
binder,measurement,setting,value
"HML-Native (Hypnea musciformis), P84871 (protein) QKFCTLDIAPVCCQIVIGGGMYTAGNACMCEGFVSGVGRCENPKECPCTREAQIPSCCSSRWGLVSVTGKCACDCLGGTVAFPEPCPSPY",glycan array binding signal (z-score),[1],-0.183
same,glycan array binding signal (z-score),[2],-0.192
same,glycan array binding signal (z-score),[3],-0.11
same,glycan array binding signal (z-score),[4],-0.254
same,glycan array binding signal (z-score),[5],-0.179
same,glycan array binding signal (z-score),[6],-0.199
same,glycan array binding signal (z-score),[7],-0.261
same,glycan array binding signal (z-score),[8],-0.225
same,glycan array binding signal (z-score),[9],-0.287
same,glycan array binding signal (z-score),[10],-0.24
same,glycan array binding signal (z-score),[11],-0.229
same,glycan array binding signal (z-score),[12],-0.304
same,glycan array binding signal (z-score),[13],-0.191
same,glycan array binding signal (z-score),[14],-0.122
same,glycan array binding signal (z-score),[15],-0.195
same,glycan array binding signal (z-score),[16],-0.257
same,glycan array binding signal (z-score),[17],-0.273
same,glycan array binding signal (z-score),[18],-0.255
same,glycan array binding signal (z-score),[19],-0.233
same,glycan array binding signal (z-score),[20],-0.071
same,glycan array binding signal (z-score),[21],-0.149
same,glycan array binding signal (z-score),[22],-0.18
same,glycan array binding signal (z-score),[23],-0.298
same,glycan array binding signal (z-score),[24],-0.291
same,glycan array binding signal (z-score),[25],-0.236
same,glycan array binding signal (z-score),[26],-0.172
same,glycan array binding signal (z-score),[27],-0.324
same,glycan array binding signal (z-score),[28],-0.305
same,glycan array binding signal (z-score),[29],-0.257
same,glycan array binding signal (z-score),[30],-0.323
same,glycan array binding signal (z-score),[31],-0.268
same,glycan array binding signal (z-score),[32],-0.246
same,glycan array binding signal (z-score),[33],-0.239
same,glycan array binding signal (z-score),[34],-0.216
same,glycan array binding signal (z-score),[35],-0.183
same,glycan array binding signal (z-score),[36],-0.182
same,glycan array binding signal (z-score),[37],-0.369
same,glycan array binding signal (z-score),[38],-0.217
same,glycan array binding signal (z-score),[39],-0.265
same,glycan array binding signal (z-score),[40],-0.139
same,glycan array binding signal (z-score),[41],-0.151
same,glycan array binding signal (z-score),[42],-0.345
same,glycan array binding signal (z-score),[43],-0.279
same,glycan array binding signal (z-score),[44],-0.26
same,glycan array binding signal (z-score),[45],-0.252
